{
  "source": "paper PMC4336329",
  "about": "(PLoS ONE, 2015)",
  "note": "Hit rate of the full screen: of about 310,000 compounds, about 14,000 (4.5%) showed an effect of 50% or more. Effects have a minus sign here. This is one part of the list.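 Note: peak tail current of the secondary pulse compared with the same well before compound.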",
  "data": [
    {"target": "human ether-à-go-go-related gene (hERG) potassium channel (human, UniProt Q12809)", "sequence (Q12809 whole entry, looked up)": "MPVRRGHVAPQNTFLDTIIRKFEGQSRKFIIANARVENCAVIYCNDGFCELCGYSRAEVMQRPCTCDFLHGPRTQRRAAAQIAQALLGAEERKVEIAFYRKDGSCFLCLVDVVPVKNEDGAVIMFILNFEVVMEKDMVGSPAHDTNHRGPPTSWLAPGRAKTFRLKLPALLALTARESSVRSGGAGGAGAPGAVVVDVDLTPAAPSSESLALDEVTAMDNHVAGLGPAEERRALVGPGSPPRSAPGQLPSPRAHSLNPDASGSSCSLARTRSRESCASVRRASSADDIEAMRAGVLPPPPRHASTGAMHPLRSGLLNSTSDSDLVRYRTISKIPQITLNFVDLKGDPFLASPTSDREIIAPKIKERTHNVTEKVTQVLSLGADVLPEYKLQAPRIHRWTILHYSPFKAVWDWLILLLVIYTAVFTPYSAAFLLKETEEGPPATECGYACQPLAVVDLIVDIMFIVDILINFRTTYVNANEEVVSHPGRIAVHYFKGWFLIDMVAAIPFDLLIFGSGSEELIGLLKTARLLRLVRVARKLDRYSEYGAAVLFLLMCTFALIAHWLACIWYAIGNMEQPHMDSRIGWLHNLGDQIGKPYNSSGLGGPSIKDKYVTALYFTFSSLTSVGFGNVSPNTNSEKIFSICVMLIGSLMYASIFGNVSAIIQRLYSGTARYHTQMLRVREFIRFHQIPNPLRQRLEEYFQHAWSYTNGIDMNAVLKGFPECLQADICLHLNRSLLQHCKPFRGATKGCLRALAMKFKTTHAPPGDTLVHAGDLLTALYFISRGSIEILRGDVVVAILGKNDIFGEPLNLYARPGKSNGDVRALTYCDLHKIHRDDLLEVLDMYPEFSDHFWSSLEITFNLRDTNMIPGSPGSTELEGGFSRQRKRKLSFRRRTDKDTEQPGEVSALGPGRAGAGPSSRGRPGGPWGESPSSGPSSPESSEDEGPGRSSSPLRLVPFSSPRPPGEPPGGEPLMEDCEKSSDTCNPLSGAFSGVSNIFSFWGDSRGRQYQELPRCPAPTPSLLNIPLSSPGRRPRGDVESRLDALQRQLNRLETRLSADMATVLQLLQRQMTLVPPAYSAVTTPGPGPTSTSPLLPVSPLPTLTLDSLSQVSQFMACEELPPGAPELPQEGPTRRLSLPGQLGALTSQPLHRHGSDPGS", "assay": "primary screen, population patch clamp on CHO cells stably expressing hERG", "units": {"hERG current change (%, negative = inhibition) at 10uM": "%"}, "values": [
      {"smiles": "CCOC(=O)C1(Cc2ccccc2)C(=O)Nc2ccccc21", "note": "(stereo not shown)", "hERG current change (%, negative = inhibition) at 10uM": -1.59},
      {"smiles": "COc1ccc(CCNC(=O)CC2SC(=NCCc3ccccc3)NC2=O)cc1OC", "note": "(stereo not shown)", "hERG current change (%, negative = inhibition) at 10uM": 10.2},
      {"smiles": "Cn1c(=O)n(C)c2cc([N+](=O)[O-])c(N3CCN(C(=O)c4ccc(Cl)cc4)CC3)cc21", "hERG current change (%, negative = inhibition) at 10uM": -65.9},
      {"smiles": "Cc1ccc(NC(=O)OCCNC(=O)OC(C)C)cc1", "hERG current change (%, negative = inhibition) at 10uM": 10.2},
      {"smiles": "Cc1ccc(C2C(C#N)=C(N)OC3=C2C(=O)CCC3)s1", "note": "(stereo not shown)", "hERG current change (%, negative = inhibition) at 10uM": 14},
      {"smiles": "FC(F)(F)c1ccc(Cl)c(NC(=S)N/N=C/c2ccccc2Cl)c1", "hERG current change (%, negative = inhibition) at 10uM": 5.74},
      {"smiles": "CCn1c(CNC(=O)Cc2ccc(OC)cc2)nnc1SCC(=O)c1ccc(Br)cc1", "hERG current change (%, negative = inhibition) at 10uM": -4.64},
      {"smiles": "COc1cc2[nH]c(=O)n(CCCCCC(=O)NCCc3c[nH]c4ccccc34)c(=O)c2cc1OC", "hERG current change (%, negative = inhibition) at 10uM": -5.15},
      {"smiles": "CC(C)n1ncc2c(C(=O)Nc3cccc(C#N)c3)cc(C3CC3)nc21", "hERG current change (%, negative = inhibition) at 10uM": -40.6},
      {"smiles": "COC(Cn1cc(C)c(=O)[nH]c1=O)OC", "hERG current change (%, negative = inhibition) at 10uM": 16.3},
      {"smiles": "CCOC(=O)C1=C(CSc2nc3ccccc3s2)NC(=O)NC1c1cc(C)ccc1C", "note": "(stereo not shown)", "hERG current change (%, negative = inhibition) at 10uM": -3.57},
      {"smiles": "O=P(c1ccc2c(c1)OCCO2)(N1CCOCC1)N1CCOCC1", "hERG current change (%, negative = inhibition) at 10uM": -12.4},
      {"smiles": "COc1ccc(C2/C(=C(\\O)c3ccc(OC)c(Cl)c3)C(=O)C(=O)N2CCN(C)C)cc1", "note": "(stereo not shown)", "hERG current change (%, negative = inhibition) at 10uM": 10.3},
      {"smiles": "COc1ccc(CNc2ncnc3cc(OC)c(OC)cc23)cc1OC", "hERG current change (%, negative = inhibition) at 10uM": 37},
      {"smiles": "CN(C(=O)CN1C(=O)NC(C)(CCc2ccccc2)C1=O)c1ccccc1", "note": "(stereo not shown)", "hERG current change (%, negative = inhibition) at 10uM": 4.77},
      {"smiles": "Cc1ccccc1C(=O)Nc1cc(NC(=O)c2ccccc2C)cc(C(=O)O)c1", "hERG current change (%, negative = inhibition) at 10uM": 11.5},
      {"smiles": "Cc1cccc(NS(=O)(=O)c2c(C)nc3scc(C)n3c2=O)c1", "hERG current change (%, negative = inhibition) at 10uM": -65.2},
      {"smiles": "O=C(Cn1c2ccccc2c(=O)c2ccccc21)Nc1cccc(F)c1", "hERG current change (%, negative = inhibition) at 10uM": 12.8},
      {"smiles": "Cc1ccccc1Oc1ccc(S(=O)(=O)NCCC(=O)O)cc1", "hERG current change (%, negative = inhibition) at 10uM": 18.1},
      {"smiles": "COC(=O)c1ccc2[nH]c3cccc(/C(=C/c4ccccc4)c4ccccc4)c3c2c1", "hERG current change (%, negative = inhibition) at 10uM": 13.1},
      {"smiles": "O=C(C1=C[C@@H](c2ccccc2)C[C@@H](OCCCCO)O1)N1CCOCC1", "hERG current change (%, negative = inhibition) at 10uM": 1.52},
      {"smiles": "COC(=O)CN1C(=O)C(O)(CC(=O)c2ccc(C)cc2)c2cc(Br)ccc21", "note": "(stereo not shown)", "hERG current change (%, negative = inhibition) at 10uM": -17.7},
      {"smiles": "CCN(CC)C(=O)c1ccc(NC(=O)c2c(C)noc2C)cc1", "hERG current change (%, negative = inhibition) at 10uM": -3.24},
      {"smiles": "COc1ccc(CNC(=O)COC(=O)c2c(NC(C)=O)sc(C)c2C)cc1", "hERG current change (%, negative = inhibition) at 10uM": 0.943},
      {"smiles": "COCCCNC(=O)CSc1nc2ccccc2c(=O)n1Cc1ccc2c(c1)OCO2", "hERG current change (%, negative = inhibition) at 10uM": 12.4},
      {"smiles": "Cc1ccc(NC(=O)c2cnc(SCC(=O)NCC3CCCO3)n(C)c2=O)cc1C", "note": "(stereo not shown)", "hERG current change (%, negative = inhibition) at 10uM": -43.2},
      {"smiles": "Cc1ccc(-n2nc3c(c2NC(=O)/C=C\\c2ccc4c(c2)OCO4)CSC3)c(C)c1", "hERG current change (%, negative = inhibition) at 10uM": 3.72},
      {"smiles": "Cc1cccc(OCCCCc2c(C)n[nH]c2C)c1", "hERG current change (%, negative = inhibition) at 10uM": 5.95},
      {"smiles": "Cl.N=c1c[n+](-c2ccc(Cl)cc2)[n-]o1", "hERG current change (%, negative = inhibition) at 10uM": 4.05},
      {"smiles": "CC(C)Cn1c(NCCO)nc2ccccc21", "hERG current change (%, negative = inhibition) at 10uM": -1.97},
      {"smiles": "CN1CCN(Cc2nc3cc(NC(=O)COc4ccc([N+](=O)[O-])cc4)ccc3n2C)CC1", "hERG current change (%, negative = inhibition) at 10uM": 9.29},
      {"smiles": "COc1ccc(N2CCN(C(=O)c3ccc4c(Cl)c5c(nc4c3)CCCC5)CC2)cc1", "hERG current change (%, negative = inhibition) at 10uM": 6.33},
      {"smiles": "COc1cccc(-c2cnc(OC(C)(C)C)nc2OC(C)(C)C)c1", "hERG current change (%, negative = inhibition) at 10uM": 14.7},
      {"smiles": "Cc1cc(NC(=O)c2ccc3c(c2)OCO3)ccc1NC(=O)c1ccco1", "hERG current change (%, negative = inhibition) at 10uM": -3.87},
      {"smiles": "O=C(Cc1c[nH]c2ccccc12)NCc1ccccc1F", "hERG current change (%, negative = inhibition) at 10uM": 24.5},
      {"smiles": "Cc1[nH]n(C(N)=S)c(=O)c1N=Nc1ccc([N+](=O)[O-])cc1Cl", "hERG current change (%, negative = inhibition) at 10uM": -5.43},
      {"smiles": "O=C(c1cccc([N+](=O)[O-])c1)N1CC2C3C=CC(C3)C2C1", "note": "(stereo not shown)", "hERG current change (%, negative = inhibition) at 10uM": 17.8},
      {"smiles": "COc1cccc(C(=O)Nc2cc(C(=O)NCc3ccc(C)cc3)ccc2N2CCC3(CC2)CC(c2ccccc2)=NO3)c1", "hERG current change (%, negative = inhibition) at 10uM": -5.34},
      {"smiles": "O=C(NNS(=O)(=O)c1ccc(Br)cc1)c1ccccc1-n1cccc1", "hERG current change (%, negative = inhibition) at 10uM": -10.5},
      {"smiles": "O=C(O)/C=C\\C(=O)NNC(=O)c1cc(-c2ccccc2)n[nH]1", "hERG current change (%, negative = inhibition) at 10uM": 6},
      {"smiles": "O=C(CN1CCc2cc3c(cc2C1)OCCCO3)Nc1ccc(S(=O)(=O)N2CCCC2)cc1", "hERG current change (%, negative = inhibition) at 10uM": 9.41},
      {"smiles": "CC(NS(=O)(=O)c1ccc2c(c1)CC(C)N2C(=O)C1CC1)c1ccccc1", "note": "(stereo not shown)", "hERG current change (%, negative = inhibition) at 10uM": 8.28},
      {"smiles": "Cc1ccnc(SCC(=O)Nc2c(C)n(C)n(-c3ccccc3)c2=O)n1", "hERG current change (%, negative = inhibition) at 10uM": 17.7},
      {"smiles": "CCN(CC)Cc1c(O)ccc2occ(C(=O)c3ccccc3)c12", "hERG current change (%, negative = inhibition) at 10uM": -72.6},
      {"smiles": "O=C(Nc1cccc(Cl)c1)Nc1ccc(Br)cc1F", "hERG current change (%, negative = inhibition) at 10uM": 9.99},
      {"smiles": "CCc1cc2c(=O)c(-c3ccc(F)cc3)c(C(F)(F)F)oc2cc1OCC(=O)O", "hERG current change (%, negative = inhibition) at 10uM": 18.4},
      {"smiles": "CC(C)OC(=O)CSc1nnc(-c2ccc(O)cc2)n1Cc1ccccc1", "hERG current change (%, negative = inhibition) at 10uM": -18.4},
      {"smiles": "Cc1ccc(C(=O)NC2CCCC2)s1", "hERG current change (%, negative = inhibition) at 10uM": 12.7},
      {"smiles": "Nc1nc(SCC(=O)c2ccc(Br)s2)n[nH]1", "hERG current change (%, negative = inhibition) at 10uM": 22.4},
      {"smiles": "O=[N+]([O-])c1cccc(CN2CCN(S(=O)(=O)Cc3ccccc3)CC2)c1", "hERG current change (%, negative = inhibition) at 10uM": -2.95},
      {"smiles": "O=C(CN1CCCCC1)N1CCCc2c1c(=O)oc1ccc(OCc3ccccc3)cc21", "hERG current change (%, negative = inhibition) at 10uM": -54.6},
      {"smiles": "O=C(COC(=O)C1CCC(=O)N1)Nc1ccccc1Br", "note": "(stereo not shown)", "hERG current change (%, negative = inhibition) at 10uM": 1.21},
      {"smiles": "COc1ccccc1N1CCN(Cc2cc3c(cc2[N+](=O)[O-])OCO3)CC1", "hERG current change (%, negative = inhibition) at 10uM": -28},
      {"smiles": "CC(=O)c1ccc(NS(=O)(=O)Cc2ccccc2)cc1", "hERG current change (%, negative = inhibition) at 10uM": 3.41},
      {"smiles": "CCN(CC)S(=O)(=O)c1cccc(C(=O)N/N=C/c2cc(OC)c(O)c(OC)c2)c1", "hERG current change (%, negative = inhibition) at 10uM": -16.8}
    ]}
  ]
}
